The % Inhibition is the relative decrease from the control value, in per cent.

In all, about 150,000 compounds went through this assay and about 540 (0.36%) showed an effect of 50% or more. Some of the results follow.

The results in this text go back to ChEMBL document CHEMBL4888484, “Replenishing the malaria drug discovery pipeline: Screening and hit evaluation of the MMV Hit Generation Library 1 (HGL1) against asexual blood stage Plasmodium falciparum ,using a nano luciferase reporter read-out” (2022).

In the experiment the test system is Plasmodium falciparum. Description: Primary screen in NF54 nanoGlo assay, in single point, at 2uM, 72h; a lower Z score goes with more inhibition. The experiment is classed as functional, Erythrocyte. To be noted: timepoint 72 hour.
As for `CC(C)(C(=O)NCc1cc[nH]n1)c1ccc(Cl)cc1F`, the “% Inhibition” value came to 6% and the Z score is reported as -1.04.

As for `Cc1nc2c(C)cccc2cc1C(=O)N1CC2(CNC(=O)N2)C1`, the “% Inhibition” value is recorded as -3% and the Z score is listed as 0.56.

For the compound `CCCOc1ccc(CN2C[C@H](COc3cccnc3)C3(CCOCC3)C2)cc1`, the “% Inhibition” value amounted to 19% and the Z score is on record as -2.49.

For `Cc1c(-c2ccc(F)cc2)[nH]c2ccc(CNC(=O)CCN3CCCO3)cc12`, the “% Inhibition” value was 1% and the Z score is reported as -0.22.

Consider `CCC(=O)NCc1ccc(-c2noc(Cc3ccc(C)cc3)n2)s1`, for which the “% Inhibition” value is -6% and the Z score amounted to 0.69.

In the case of `CC(C)CN(CC(C)C)S(=O)(=O)c1cccc(Br)c1`, the “% Inhibition” value is -12% and the Z score was determined as 1.41.

Turning to `Cc1nnc(NC(=O)C2(C)CC2F)s1` (stereo not drawn), the “% Inhibition” value is -3% and the Z score came out at 0.34.

On to `CCOc1ccc(C(=O)Nc2ccc3ncnc(N4CCCCC4)c3c2)cc1`, for which the “% Inhibition” value is 6% and the Z score is on record as -1.07.

`CCC(=O)N1CCN(C(=O)c2ccc(=O)n(C)c2)C1`: the “% Inhibition” value is -9% and the Z score worked out at 1.02.

For `O=C1CCC2(CCN(c3ccc(Cl)cn3)CC2)CN1[C@H]1CC[C@H](O)CC1`, the “% Inhibition” value was -13% and the Z score is recorded as 1.75.

Consider `O=C(C[C@H]1CNCCO1)NCC1CCC(c2nc3ccccc3[nH]2)CC1` (stereo partly drawn), for which the “% Inhibition” value was 3% and the Z score was -0.48.

`Cc1ncc2c(n1)CN(C1CC(C)OC1=O)CC2` (stereo not drawn): the “% Inhibition” value was -5% and the Z score came to 0.86.

Regarding `CCN(CC)c1ccc(-c2nc(C3(S(C)(=O)=O)CC3)no2)cn1`, the “% Inhibition” value was 5% and the Z score was -0.78.

On to `CCCc1nc(C)c(CNC(=O)c2ccc(OC)c(O)c2)s1`, for which the “% Inhibition” value is -4% and the Z score came to 0.88.

As for `Cc1cnc(CNC(=O)N2CCOCC2)o1`, the “% Inhibition” value is 3% and the Z score is reported as -0.4.

With `COCCN(CC(=O)N1N=C(c2ccc(OC)cc2)C[C@H]1c1ccc(OC)cc1)C(=O)c1cccc(F)c1`, the “% Inhibition” value is on record as -2% and the Z score is 0.28.

Take `CCN(CC)S(=O)(=O)c1ccc2c(c1)nnn2CCC(=O)NC(C)(C)C`: the “% Inhibition” value was 5% and the Z score is -0.5.

With `COCCNC(=O)C1CCC(c2ccccc2)N(C(=O)c2ccccc2F)C1` (stereo not drawn), the “% Inhibition” value is -13% and the Z score is 1.68.

On to `CCn1nccc1C(=O)N1CC[C@H](c2nc3cccnc3n2CC)C1`, for which the “% Inhibition” value was found to be 2% and the Z score was -0.21.

Regarding `CCn1cc(S(=O)(=O)N2CCc3ccccc3CC2)cc1C(=O)O`, the “% Inhibition” value is reported as 20% and the Z score was -2.27.

For the compound `COc1ccc(CC(=O)N2CCNc3ncc(C)cc32)c(C)c1`, the “% Inhibition” value is listed as -13% and the Z score is given as 1.53.

For the compound `CC(C)c1nc(C(=O)N2CCc3[nH]c4c(Cl)cccc4c3C2)cs1`, the “% Inhibition” value was found to be 8% and the Z score is -1.18.

As to `CCn1cc(-c2ccc(C)cc2)cc1C(=O)NCc1ccccn1`, the “% Inhibition” value is recorded as 10% and the Z score is recorded as -1.62.

With `Cc1ccccc1NC(=O)N1CCC(N2C(=O)COCC2=O)CC1`, the “% Inhibition” value was found to be 13% and the Z score was -1.69.
